Measurements reported in the supplement of paper PMC10600219.
Counter-ions that a name gives are not always drawn. In all, about 2,800 compounds were measured (“cell viability relative to vehicle”: median about 0.98, lowest 2% from about 0.45 on). Some of the results follow.

system: NCI-H2228 alectinib-DTP; assay: cell viability relative to vehicle (fraction of vehicle); NCI-H2228 is an ALK-positive lung cancer line and DTP means drug-tolerant persister; higher = less growth inhibition; details: 100 nM; treatment time 6 days
Procedure, shortened: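 Drug-tolerant persister NCI-H2228 cells, produced by 13 days in 1000 nM of a targeted drug, and their parental counterparts were seeded into 384-well plates and, the following day, given the 3114-agent TargetMol anti-cancer compound library at 100 nM or DMSO vehicle. After 6 days, the CellTiter-Glo 3D Cell Viability Assay was used to read ATP. Each entry reports viability compared with vehicle-treated cells.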

SMILES | cell viability
Cn1c(-c2ccccc2C(F)(F)F)nnc1C12CCC(c3noc(C4CC(F)(F)C4)n3)(CC1)CC2 | 1.2
COCCCN1CCC(NC(=O)c2cc(Cl)c(N)c3c2OCC3)CC1 [Prucalopride] | 1.03
CCCCCCNC(=O)Nc1ccc(S(=O)(=O)Nc2ccc(CCNC[C@H](O)COc3ccc(O)cc3)cc2)cc1 | 1.21
O=C(Nc1ccncc1)c1cc([N+](=O)[O-])ccc1Cl | 0.871
c1nc2c(NC3CCCCC3)nc(Nc3ccc(N4CCOCC4)cc3)nc2[nH]1 [Reversine] | 0.973
COc1cc2nccc(Oc3ccc(NC(=O)NC4CC4)c(Cl)c3)c2cc1C(N)=O [Lenvatinib] | 0.993
CC(C)=CCC(OC(=O)C=C(C)C)C1=CC(=O)c2c(O)ccc(O)c2C1=O (stereo not drawn) [beta, beta-dimethylacrylshikonin] | 0.892
COc1ccc(S(=O)(=O)N[C@@H](CNc2nc(C)nc(N3CCC(c4ccc5c(n4)NCCC5)CC3)c2C)C(=O)O)cc1 | 0.626
CCC(C)(Oc1ccc(C2(c3ccc(OC(C)(CC)C(=O)O)cc3)CCCCC2)cc1)C(=O)O (centres undefined) [Clinofibrate] | 1.09
CNc1cc(-c2cccc(Cl)c2Cl)nc(N)n1 [TH287 hydrochloride] | 1.08
COc1nc(OCc2cccc(-c3ccccc3)c2C)ccc1CNCCNC(C)=O [PD1-PDL1 inhibitor 2] | 0.928
CC[C@@H]1C(=O)OC[C@@H]1Cc1cncn1C [(+)-Pilocarpine hydrochloride] | 0.933
CC[C@@H]1C(=O)OC[C@@H]1Cc1cncn1C [Pilocarpine nitrate] | 1.01
Oc1ccc(C(c2c[nH]c3ccccc23)c2c[nH]c3ccccc23)cc1 | 1.08
CN1CCc2c(c3ccccc3n2Cc2ccc(C(=O)NO)cc2)C1 [Tubastatin A HCl] | 0.892
Cc1c(CN2CCN(C(=O)[C@H](C)O)CC2)sc2c(N3CCOCC3)nc(-c3cnc(N)nc3)nc12 [Apitolisib] | 0.434
CN1C(=O)CC[C@H]1c1cccnc1 [(-)-Cotinine] | 1.08
CC(C)(CO)c1cc2cc(NC(=O)C3(c4ccc5c(c4)OC(F)(F)O5)CC3)c(F)cc2n1C[C@@H](O)CO | 1.03
OCc1c[nH]c2ccccc12 [Indole-3-carbinol] | 0.81
O=C(Nc1ccccc1)C12CC1C(=NO)c1ccccc1O2 (centres undefined) | 1.01

SMILES | cell viability
Cc1ccc(C(=O)Nc2ccc(Oc3cc4cnn(C)c4cc3-c3cn[nH]c3)c(F)c2)c(=O)n1-c1ccc(F)cc1 [Merestinib] | 0.924
N#CCNC(=O)c1ccc(-c2ccnc(Nc3ccc(N4CCOCC4)cc3)n2)cc1 [Momelotinib] | 0.902
CS(=O)(=O)OCCCCOS(C)(=O)=O [Busulfan] | 0.959
O=C(/C=C/c1ccc(O)cc1)c1ccc(O)cc1O [Isoliquiritigenin] | 1.26
N#Cc1ccc(-c2csc(NN=C3CCCC3)n2)cc1 [Remodelin hydrobromide] | 1.09
Cc1c(NC(=O)c2cccnc2)c(=O)n(-c2ccccc2)n1C [Nifenazone] | 1.02
Cc1ncc(-c2ccnc(Nc3ccc(S(C)(=O)=O)cc3)n2)n1C(C)C | 0.914
Nc1c(S(=O)(=O)c2ccccc2)c2nc3ccccc3nc2n1-c1ccc(F)cc1 | 1.11
N[C@@H](Cc1c[nH]c2ccccc12)C(=O)O [L-Tryptophan] | 1.1
Cc1ccc2nc(CN(CCN(Cc3nc4ccc(C)cc4[nH]3)Cc3nc4ccc(C)cc4[nH]3)Cc3nc4ccc(C)cc4[nH]3)[nH]c2c1 | 1
CCc1ccc(-c2nc(CSCC(=O)NCCc3ccccc3)c(C)o2)cc1 | 1.08
C=C1CC[C@@H]2[C@](C)(CO)[C@H](O)CC[C@@]2(C)[C@@H]1C/C=C1/C(=O)OC[C@H]1O [Andrographolide] | 0.928
Cc1cn([C@H]2C=C[C@@H](CO)O2)c(=O)[nH]c1=O [Stavudine] | 1.02
CC(=O)NS(=O)(=O)c1ccc(N)cc1 [Sulfacetamide sodium salt hydrate] | 0.923
C=CC1=C(C(=O)O)N2C(=O)[C@@H](NC(=O)/C(=N\O)c3csc(N)n3)[C@H]2SC1 [Cefdinir] | 1.14
OCc1ccccc1O[C@@H]1O[C@H](CO)[C@@H](O)[C@H](O)[C@H]1O [Salicoside] | 1.04
CNC(=O)c1ccccc1Nc1cc(Nc2ccc(N3CCOCC3)cc2OC)ncc1C(F)(F)F | 0.968
CNC(=O)c1cc(Oc2ccc(NC(=O)Nc3ccc(Cl)c(C(F)(F)F)c3)cc2)ccn1 [Sorafenib tosylate] | 1.04
CNC(=O)c1cc(Oc2ccc(NC(=O)Nc3ccc(Cl)c(C(F)(F)F)c3)cc2)ccn1 [Sorafenib] | 0.992
